Assay results as given in article PMC12375107.
Substitutions are numbered along the chain they refer to. Results are given in words; binding and its absence hold for the method and conditions named. For some assays here: Binding seen in cells or lysates may run through a third protein. Some entries that bind do so weakly or less than the wild type. For some assays here: Where a sequence is shown, tags or fusion partners need not be part of it.

Chains of the proteins cited; added tags and fusions are not shown. Lines headed by an entry give the natural chain unless they say otherwise; changes in a name come on top.
UniProt Q86WV6: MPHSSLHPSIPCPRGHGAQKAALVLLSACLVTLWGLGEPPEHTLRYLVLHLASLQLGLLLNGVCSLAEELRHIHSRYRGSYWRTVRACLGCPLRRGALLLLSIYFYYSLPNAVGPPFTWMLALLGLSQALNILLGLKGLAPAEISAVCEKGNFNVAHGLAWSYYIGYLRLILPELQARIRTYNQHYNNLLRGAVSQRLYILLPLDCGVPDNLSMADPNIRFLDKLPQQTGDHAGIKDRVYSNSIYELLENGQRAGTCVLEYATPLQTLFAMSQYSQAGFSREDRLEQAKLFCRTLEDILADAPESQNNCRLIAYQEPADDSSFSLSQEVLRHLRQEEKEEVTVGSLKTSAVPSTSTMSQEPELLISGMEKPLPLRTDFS
UniProt Q8N884: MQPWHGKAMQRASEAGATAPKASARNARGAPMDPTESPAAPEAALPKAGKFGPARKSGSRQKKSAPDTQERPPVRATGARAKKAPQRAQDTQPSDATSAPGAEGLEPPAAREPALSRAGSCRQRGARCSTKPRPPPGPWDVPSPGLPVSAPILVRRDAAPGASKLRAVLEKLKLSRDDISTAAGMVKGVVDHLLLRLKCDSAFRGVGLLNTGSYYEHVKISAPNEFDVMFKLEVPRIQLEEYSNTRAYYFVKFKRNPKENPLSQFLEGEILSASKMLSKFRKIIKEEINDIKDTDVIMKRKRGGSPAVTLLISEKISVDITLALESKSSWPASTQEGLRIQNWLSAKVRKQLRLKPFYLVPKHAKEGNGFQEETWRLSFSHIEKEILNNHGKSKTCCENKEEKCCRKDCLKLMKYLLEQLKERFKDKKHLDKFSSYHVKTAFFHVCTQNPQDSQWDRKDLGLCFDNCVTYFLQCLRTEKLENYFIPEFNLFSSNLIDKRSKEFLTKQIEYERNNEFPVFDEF

Assays:
[1] = molecular target: T1, Flag-tagged CAD (caspase-activated DNase) (human) (UniProt O76075); test: co-IP; exogenous (transfected) proteins in lysates of HEK293T, HCT116 or HT29 cells; IP lysis buffer 25 mM HEPES, 150 mM NaCl, 1 mM EDTA, 1% NP-40, 10% glycerol, pH 7.4; antibody against Flag, MYC or HA, Protein A/G magnetic beads; western blotting
T1 sequence: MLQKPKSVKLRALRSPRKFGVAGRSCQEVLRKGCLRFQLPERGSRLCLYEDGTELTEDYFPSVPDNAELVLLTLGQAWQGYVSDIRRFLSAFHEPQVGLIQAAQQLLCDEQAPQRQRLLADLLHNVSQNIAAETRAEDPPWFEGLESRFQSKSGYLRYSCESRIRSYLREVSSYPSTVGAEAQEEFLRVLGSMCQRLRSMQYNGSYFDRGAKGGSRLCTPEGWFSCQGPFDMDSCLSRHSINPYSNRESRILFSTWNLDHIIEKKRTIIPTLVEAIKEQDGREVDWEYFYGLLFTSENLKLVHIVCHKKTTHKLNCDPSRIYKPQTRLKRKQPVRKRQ

[2] = molecular target: T1, Flag-tagged CAD (caspase-activated DNase) (human); test: co-IP; HEK293T cells; the pair co-expressed with a third protein (CAD, ICAD or ICAD-NTD), in part at different amounts; western blotting
[3] = molecular target: T2, CAD^RCQ (R24A, C26A, and Q27A) (human) (UniProt O76075); test: co-IP; exogenous (transfected) proteins in lysates of HEK293T, HCT116 or HT29 cells; IP lysis buffer 25 mM HEPES, 150 mM NaCl, 1 mM EDTA, 1% NP-40, 10% glycerol, pH 7.4; antibody against Flag, MYC or HA, Protein A/G magnetic beads; western blotting
T2 sequence: T1 sequence with R24A, C26A, Q27A

CAD C26A (human) = molecular target: T3, CAD C26A (human) (UniProt O76075); test: as above
T3 sequence: T1 sequence with C26A

CAD R24A (human) = molecular target: T4, CAD R24A (human) (UniProt O76075); test: as above
T4 sequence: T1 sequence with R24A

CAD Q27A (human) = molecular target: T5, CAD Q27A (human) (UniProt O76075); test: as above
T5 sequence: T1 sequence with Q27A

CAD-H260A (human) = molecular target: T6, CAD-H260A (human) (UniProt O76075); test: as above
T6 sequence: T1 sequence with H260A

GST-tagged CAD (human) = molecular target: T7, GST-tagged CAD (human) (UniProt O76075); test: pull-down; purified GST-tagged CAD or STING incubated with untagged STING or CAD and GST-conjugated beads at 4 °C overnight; western blotting; both purified
T7 sequence: T1 sequence

Substance	binding [1]	further results
STING D237A (from UniProt Q86WV6 1-379)	binds	–
STING G166A (from UniProt Q86WV6 1-379)	binds	–
STING V239A (from UniProt Q86WV6 1-379)	binds	–
STING-R284S (from UniProt Q86WV6 1-379)	no binding	–
STING^GDV (G166R, D237A, and V239F) (from UniProt Q86WV6 1-379)	no binding	–
myc- or HA-tagged cGAS (from UniProt Q8N884 1-522) (enzyme)	no binding	–
tagged STING (from UniProt Q86WV6 1-379)	binds	binding [2]: binds; binding [3]: no binding; binding (CAD C26A (human)): binds; binding (CAD R24A (human)): binds; binding (CAD Q27A (human)): binds; binding (CAD-H260A (human)): binds
untagged STING (from UniProt Q86WV6 1-379)	–	binding (GST-tagged CAD (human)): binds
